In the supplement of paper PMC8728848:
The list shows a part of the results.

Key:
Assay in all cases: glycan array binding signal (z-score within array); higher = stronger binding
Settings in all cases: glycan notation: IUPAC condensed, linker removed; mutation: R343V
[1] = molecular target: Fuc(a1-2)[GalNAc(a1-3)]Gal(b1-4)[Fuc(a1-3)]GlcNAc
How it was run: (§1)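 Columns mapping to the same glycan were averaged after glycan names were converted to IUPAC-condensed notation. The data come from 3228 arrays in the Consortium for Functional Glycomics database, limited to those with an available protein sequence. Binding is reported as a within-array Z-score averaged across arrays of one protein sequence and across linkers.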

[2] = molecular target: Fuc(a1-2)[GalNAc(a1-4)]Gal(b1-4)GlcNAc
How it was run: as §1

[3] = molecular target: Fuc(a1-2)[GalNAc(b1-3)]Gal
How it was run: as §1

Fuc(a1-3)GlcNAc = molecular target: Fuc(a1-3)GlcNAc
How it was run: as §1

[4] = molecular target: Fuc(a1-3)[Gal(b1-4)]Glc6S
How it was run: as §1

[5] = molecular target: Fuc(a1-3)[Gal(b1-4)]GlcNAc
How it was run: as §1

[6] = molecular target: Fuc(a1-3)[Gal(b1-4)]GlcNAc(b1-2)Man(a1-3)[Fuc(a1-3)[Gal(b1-4)]GlcNAc(b1-2)Man(a1-6)]Man(b1-4)GlcNAc(b1-4)GlcNAc
How it was run: as §1

[7] = molecular target: Fuc(a1-3)[Gal(b1-4)]GlcNAc(b1-2)Man(a1-6)[Gal(b1-4)GlcNAc(b1-2)Man(a1-3)]Man(b1-4)GlcNAc(b1-4)GlcNAc
How it was run: as §1

[8] = molecular target: Fuc(a1-3)[Gal(b1-4)]GlcNAc(b1-3)Gal(b1-3)[Fuc(a1-4)]GlcNAc
How it was run: as §1

[9] = molecular target: Fuc(a1-3)[Gal(b1-4)]GlcNAc(b1-4)Gal(b1-4)[Fuc(a1-3)]GlcNAc
How it was run: as §1

[10] = molecular target: Fuc(a1-3)[Gal(b1-4)]GlcNAc(b1-4)Gal(b1-4)[Fuc(a1-3)]GlcNAc(b1-4)Gal(b1-4)[Fuc(a1-3)]GlcNAc
How it was run: as §1

[11] = molecular target: Fuc(a1-3)[Gal(b1-4)]GlcNAc6S
How it was run: as §1

[12] = molecular target: Fuc(a1-3)[Gal3S(b1-4)]Glc6S
How it was run: as §1

[13] = molecular target: Fuc(a1-3)[Gal3S(b1-4)]GlcNAc
How it was run: as §1

[14] = molecular target: Fuc(a1-3)[Gal3S(b1-4)]GlcNAc6S
How it was run: as §1

[15] = molecular target: Fuc(a1-3)[GalNAc(b1-4)]GlcNAc
How it was run: as §1

Fuc(a1-4)GlcNAc = molecular target: Fuc(a1-4)GlcNAc
How it was run: as §1

Fuc(b1-3)GlcNAc = molecular target: Fuc(b1-3)GlcNAc
How it was run: as §1

Gal(a1-2)Gal = molecular target: Gal(a1-2)Gal
How it was run: as §1

Gal(a1-3)Gal = molecular target: Gal(a1-3)Gal
How it was run: as §1

Gal(a1-3)Gal(b1-3)GlcNAc = molecular target: Gal(a1-3)Gal(b1-3)GlcNAc
How it was run: as §1

Gal(a1-3)Gal(b1-4)Glc = molecular target: Gal(a1-3)Gal(b1-4)Glc
How it was run: as §1

Gal(a1-3)Gal(b1-4)GlcNAc = molecular target: Gal(a1-3)Gal(b1-4)GlcNAc
How it was run: as §1

[16] = molecular target: Gal(a1-3)Gal(b1-4)[Fuc(a1-3)]GlcNAc
How it was run: as §1

Gal(a1-3)GalNAc = molecular target: Gal(a1-3)GalNAc
How it was run: as §1

[17] = molecular target: Gal(a1-3)[Gal(a1-4)]Gal(b1-4)GlcNAc
How it was run: as §1

Gal(a1-4)Gal(b1-4)Glc = molecular target: Gal(a1-4)Gal(b1-4)Glc
How it was run: as §1

Gal(a1-4)Gal(b1-4)GlcNAc = molecular target: Gal(a1-4)Gal(b1-4)GlcNAc
How it was run: as §1

Gal(a1-4)GlcNAc = molecular target: Gal(a1-4)GlcNAc
How it was run: as §1

Gal(a1-6)Glc = molecular target: Gal(a1-6)Glc
How it was run: as §1

Gal(b1-2)Gal = molecular target: Gal(b1-2)Gal
How it was run: as §1

Gal(b1-3)Gal = molecular target: Gal(b1-3)Gal
How it was run: as §1

Gal(b1-3)Gal(b1-4)GlcNAc = molecular target: Gal(b1-3)Gal(b1-4)GlcNAc
How it was run: as §1

Gal(b1-3)GalNAc = molecular target: Gal(b1-3)GalNAc
How it was run: as §1

[18] = molecular target: Gal(b1-3)GalNAc(b1-3)Gal(a1-4)Gal(b1-4)Glc
How it was run: as §1

[19] = molecular target: Gal(b1-3)GalNAc(b1-4)Gal(b1-4)Glc
How it was run: as §1

[20] = molecular target: Gal(b1-3)GalNAc(b1-4)[Neu5Ac(a2-3)]Gal(b1-4)Glc
How it was run: as §1

B1: Surfactant Protein D (Human); Neck + Carbohydrate Recognition Domain (NCRD) (Homo sapiens) (protein)
chain: MLLFLLSALVLLTQPLGYLEAEMKTYSHRTMPSACTLVMCSSVESGLPGRDRDGREGPRGEKGDPGLPGAAGQAGMPGQAGPVGPKGDNGSVGEPGPKGDTGPSGPPGPPGVPGPAGREGALGKQGNIGPQGKPGPKGEAGPKGEVGAPGMQGSAGARGLAGPKGERGVPGERGVPGNTGAAGSAGAMGPQGSPGARGPPGLKGDKGIPGDKGAKGESGLPDVASLRQQVEALQGQVQHLQAAFSQYKKVELFPNGQSVGEKIFKTAQFVKPFTEAQLLCTQAGGQLASPRSAAENAALQQLVVAKNEAAFLSMTDSKTEGKFTYPTGESLVYSNWAPGEPNDDGGSEDCVEIFTNGKWNDVACGEKRLVVCEF
[1]
  glycan array binding signal (z-score): 0.482
[2]
  glycan array binding signal (z-score): 1.22
[3]
  glycan array binding signal (z-score): -0.491
Fuc(a1-3)GlcNAc
  glycan array binding signal (z-score): 3.11
[4]
  glycan array binding signal (z-score): -0.264
[5]
  glycan array binding signal (z-score): -0.47
[6]
  glycan array binding signal (z-score): -0.5
[7]
  glycan array binding signal (z-score): -0.543
[8]
  glycan array binding signal (z-score): 0.139
[9]
  glycan array binding signal (z-score): -0.436
[10]
  glycan array binding signal (z-score): -0.544
[11]
  glycan array binding signal (z-score): -0.351
[12]
  glycan array binding signal (z-score): -0.226
[13]
  glycan array binding signal (z-score): -0.365
[14]
  glycan array binding signal (z-score): -0.2
[15]
  glycan array binding signal (z-score): -0.548
Fuc(a1-4)GlcNAc
  glycan array binding signal (z-score): 1.34
Fuc(b1-3)GlcNAc
  glycan array binding signal (z-score): 1.95
Gal(a1-2)Gal
  glycan array binding signal (z-score): -0.571
Gal(a1-3)Gal
  glycan array binding signal (z-score): -0.455
Gal(a1-3)Gal(b1-3)GlcNAc
  glycan array binding signal (z-score): -0.501
Gal(a1-3)Gal(b1-4)Glc
  glycan array binding signal (z-score): -0.518
Gal(a1-3)Gal(b1-4)GlcNAc
  glycan array binding signal (z-score): -0.42
[16]
  glycan array binding signal (z-score): -0.503
Gal(a1-3)GalNAc
  glycan array binding signal (z-score): -0.564
[17]
  glycan array binding signal (z-score): -0.532
Gal(a1-4)Gal(b1-4)Glc
  glycan array binding signal (z-score): -0.508
Gal(a1-4)Gal(b1-4)GlcNAc
  glycan array binding signal (z-score): -0.522
Gal(a1-4)GlcNAc
  glycan array binding signal (z-score): -0.542
Gal(a1-6)Glc
  glycan array binding signal (z-score): -0.586
Gal(b1-2)Gal
  glycan array binding signal (z-score): -0.572
Gal(b1-3)Gal
  glycan array binding signal (z-score): -0.504
Gal(b1-3)Gal(b1-4)GlcNAc
  glycan array binding signal (z-score): -0.562
Gal(b1-3)GalNAc
  glycan array binding signal (z-score): -0.521
[18]
  glycan array binding signal (z-score): -0.553
[19]
  glycan array binding signal (z-score): -0.463
[20]
  glycan array binding signal (z-score): -0.438
